Earlier results in US5409948A (priority 1992, dated 1995).

Conditions: Brufani et al. 1987; cited from earlier work

SMILES: CCCCCCCNC(=O)Oc1ccc2c(c1)[C@]1(C)CCN(C)[C@@H]1N2C [heptyl-Phy]
- lipophilicity vs parent compound: greater lipophilicity
